3 substances from article PMC4546648 can be followed below.

Protein sequences, listed by entry. Tags and fused reporters are not part of them. Residues count along the entry.
UniProt P60953: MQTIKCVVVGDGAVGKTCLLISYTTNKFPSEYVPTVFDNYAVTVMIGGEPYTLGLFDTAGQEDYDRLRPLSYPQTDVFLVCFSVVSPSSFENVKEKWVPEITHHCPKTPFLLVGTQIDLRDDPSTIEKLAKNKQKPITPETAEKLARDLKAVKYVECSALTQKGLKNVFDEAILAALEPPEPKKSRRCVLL
UniProt P16885, residues 769-829: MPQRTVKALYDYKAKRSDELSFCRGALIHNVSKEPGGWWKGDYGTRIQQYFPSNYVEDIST

The target in assay [1] is T1, PLCγ1, endogenous in HuAR2T endothelial cells (human (endogenous in HuAR2T)) (UniProt P19174).
T1 sequence: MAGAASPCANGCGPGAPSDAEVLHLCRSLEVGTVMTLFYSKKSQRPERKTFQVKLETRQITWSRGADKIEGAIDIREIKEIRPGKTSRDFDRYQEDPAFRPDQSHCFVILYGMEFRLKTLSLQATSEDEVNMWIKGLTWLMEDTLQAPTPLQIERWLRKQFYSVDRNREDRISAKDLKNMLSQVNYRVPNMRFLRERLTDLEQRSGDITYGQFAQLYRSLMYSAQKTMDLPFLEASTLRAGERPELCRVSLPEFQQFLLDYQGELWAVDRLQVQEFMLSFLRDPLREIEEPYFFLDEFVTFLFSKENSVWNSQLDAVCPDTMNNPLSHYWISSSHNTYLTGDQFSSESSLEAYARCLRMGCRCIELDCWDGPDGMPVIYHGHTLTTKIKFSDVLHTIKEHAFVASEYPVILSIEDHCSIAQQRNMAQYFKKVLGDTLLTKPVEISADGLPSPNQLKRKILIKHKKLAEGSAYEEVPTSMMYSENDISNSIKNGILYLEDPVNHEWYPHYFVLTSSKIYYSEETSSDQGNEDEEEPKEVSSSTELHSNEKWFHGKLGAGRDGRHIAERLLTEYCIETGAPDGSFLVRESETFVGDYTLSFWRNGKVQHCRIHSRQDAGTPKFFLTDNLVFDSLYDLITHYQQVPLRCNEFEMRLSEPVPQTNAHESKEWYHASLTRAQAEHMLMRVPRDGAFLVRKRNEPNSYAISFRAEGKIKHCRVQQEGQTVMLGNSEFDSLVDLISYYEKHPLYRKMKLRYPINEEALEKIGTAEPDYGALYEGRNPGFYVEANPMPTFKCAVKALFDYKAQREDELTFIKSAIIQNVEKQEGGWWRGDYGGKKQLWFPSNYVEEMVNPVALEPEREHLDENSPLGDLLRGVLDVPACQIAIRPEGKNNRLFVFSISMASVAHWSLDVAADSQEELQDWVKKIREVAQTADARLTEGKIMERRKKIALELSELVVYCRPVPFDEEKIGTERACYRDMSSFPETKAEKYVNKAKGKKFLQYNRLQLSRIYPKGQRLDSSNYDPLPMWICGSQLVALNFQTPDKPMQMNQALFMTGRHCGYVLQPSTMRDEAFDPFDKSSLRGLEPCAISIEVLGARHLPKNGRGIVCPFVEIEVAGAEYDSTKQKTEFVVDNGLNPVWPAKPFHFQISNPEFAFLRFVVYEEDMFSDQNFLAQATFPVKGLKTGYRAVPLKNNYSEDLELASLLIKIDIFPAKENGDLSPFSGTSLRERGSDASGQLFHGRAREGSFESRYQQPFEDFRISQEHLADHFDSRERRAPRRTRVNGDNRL
In words: co-IP; endogenous PLCγ1 immunoprecipitated with anti-PLCγ1 antibody and protein A sepharose from pre-cleared HuAR2T rKSHV.219 lysate, with or without induction of the lytic cycle; western blot. In general terms: A western blot detects proteins with antibodies after separation by electrophoresis.

In assay [2] the target is T2, GST-K15P cytoplasmic domain (aa 347-489) (Kaposi's sarcoma herpesvirus (KSHV, HHV-8)) (UniProt Q9QR69).
T2 sequence: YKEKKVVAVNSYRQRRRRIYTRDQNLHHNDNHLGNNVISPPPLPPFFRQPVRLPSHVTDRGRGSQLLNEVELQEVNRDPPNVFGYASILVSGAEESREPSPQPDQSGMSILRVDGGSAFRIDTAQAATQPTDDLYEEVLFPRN
In words: pull-down; competition: GST-K15P cytoplasmic domain on beads pulls down endogenous PLCγ1, GIT1 and cdc42 from lysates of HEK293T transfected with 0.5, 1 or 2 μg of PLCγ2 cSH2 plasmid; western blot; only the target purified.

The target in assay [3] is T2, GST-K15P cytoplasmic domain (aa 347-489) (Kaposi's sarcoma herpesvirus (KSHV, HHV-8)). Description: pull-down; GST-K15P cytoplasmic domain on glutathione beads incubated overnight at 4°C with pre-cleared lysate of HEK293T transfected with PLCγ2 constructs; western blot; only the target purified.

These are yes or no findings as the source states them, for the method shown. Binding seen in cells or lysates may run through a third protein. Some binding calls cover weakened binding; strength is not graded here. For part of these data: Sequences can lack the tags named with a protein.

Turning to “cdc42, endogenous in HuAR2T endothelial cells (from UniProt P60953 1-191)”, the binding result in assay [1] was “binds”. As for “cdc42, endogenous in HEK293T cells (from UniProt P60953 1-191)”, in assay [2], the binding entry is “binds”.

As to “isolated PLCγ2 SH3 domain (from UniProt P16885 769-829) (domain or fragment)”, the binding result in assay [3] is “no binding”.
